T1: UNK ZnF1-3 (human, UniProt Q9C0B0 31-174)
T1 sequence: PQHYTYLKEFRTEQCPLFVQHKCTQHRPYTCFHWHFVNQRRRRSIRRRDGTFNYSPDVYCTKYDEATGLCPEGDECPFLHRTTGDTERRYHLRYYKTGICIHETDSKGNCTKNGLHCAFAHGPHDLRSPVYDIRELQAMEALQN

B1: chr5:138118867:138118868:+_ENSG00000044115_ENST00000302763|hu_mus|FALSE|FALSE (ssRNA)
RNA: GGGAGUUCUACAGUCCGACGAUCAGCCAAAACAUGGGCCUUCUUAGAACGGCCUCUCUUUUUAUUAGACGGCCCUUUACUAUUGGUGUUUACCAGGGUUGUAACCUGUGUAACAAGAGGCUCCAACAGUCUUUCAACAGCCAGCAACAGAGGAUUGAGCAUCA
B2: chr16:94664741:94664742:+_ENSMUSG00000040785_ENSMUST00000117648|mus_hu|mus_mus_mus_hu_False|18_68 (ssRNA)
RNA: GGGAGUUCUACAGUCCGACGAUCUGGUACUGAUCUUGGUAGCUGAUAUUCAGGAGAAAGGCUGGCCAAAGGUGUGUAUAUGCUGGUGUACUGGGGCAAACCUGGUAACACGUUUAUGUACGCUGGUGGUGUCUGGGUGAUAUCCAACAGAGGAUUGAGCAUCA
B3: chr6:18258251:18258252:-_ENSG00000124795_ENST00000397239|hu_hu|motif|central (ssRNA)
RNA: GGGAGUUCUACAGUCCGACGAUCCUUCUUUAAUGAGGACACAGUGCCUGGCCUGUUGUAAAGCAGUUUGUGUAGAUUUCGGAGUUCAUCGGUUUUCUUCUUACUUAGAAAAAAAUGUAUCCUCUCAAUUUCACAAAGUUUCUGCAACAGAGGAUUGAGCAUCA
B4: chr3:148802587:148802588:-_ENSG00000071794_ENST00000310053|hu_mus|hu_hu_hu_mus_False|68_78 (ssRNA)
RNA: GGGAGUUCUACAGUCCGACGAUCUCCAACAACUUGUCCUCUCAUAGUUCCAAAUAAAACGGAAUCUACUUCUUCAUCACUCGUUAGGAAGUCAUCUGGAGGAAUAAUGUCUUGGAAUUCAAAAUGUGGCAAGAAAGUUGAGUACAACAGAGGAUUGAGCAUCA
B5: chr17:66468409:66468410:+_ENSMUSG00000024101_ENSMUST00000116556|mus_mus|motif|central (ssRNA)
RNA: GGGAGUUCUACAGUCCGACGAUCUGGGAUGGAGUCUGACAUUCGAGAGAAGGCUCCUCCAGGUCCCUCACUGGUUCCAGUGCGGGGUCCCUUUCCAGAGAUACCUUUGCGCCUCAUGACAAGUUUGUUGAAGAGAUCUGACAUCAACAGAGGAUUGAGCAUCA
B6: 115427805_115427925_7963_3pUTR_ENSG00000165185_ENST00000337530|human|control|control (ssRNA)
RNA: GGGAGUUCUACAGUCCGACGAUCACAUGGAGGGGUGACACAGUAUGGCUUGAGAGAUGAAAUAUUUGCCAAACAAACCAAAACUGUGUUUAACUUUCUUAAAGUUAAUGGACUUCCAUGGCCUCCAGGAGGCAGUUUUGUCUCCAACAGAGGAUUGAGCAUCA

The other results are listed elsewhere or left out.

This assay has as its target T1, UNK ZnF1-3. The assay can be described thus: nsRBNS (natural sequence RNA bind-n-seq); RBNS binding buffer (assumed for nsRBNS): 25 mM Tris pH 7.5, 150 mM KCl, 3 mM MgCl2, 0.01% Triton X-100, 500 ug/ml BSA, 20 U/ml SUPERase-In, 4 C; UNK is unkempt and MSI1 is Musashi-1; names of the RNAs are library labels; protein concentration not given here; high values mean tight binding.
On to B1, for which the binding signal was determined as 1.03 enrichment R.
Turning to B2, the binding signal turned out to be 0.911 enrichment R.
Consider B3, for which the binding signal was found to be 0.92 enrichment R.
The result for B4 reads 1.41 enrichment R; that for B5, 0.466 enrichment R.
The result for B6 reads 0.603 enrichment R.

The values are drawn from paper PMC12136788.
